# Some of the results follow.
# Tested on: PfAP2-HC AP2 domain (GST-tagged)
# Assay: gcPBM binding intensity (ln(normalized median fluorescence intensity)); higher = stronger DNA binding
# In short: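 Each value is the highest Masliner-normalised natural-log median intensity across replicate spots of either orientation of a probe. The probes were primer-extended double-stranded 36-bp intergenic genomic sequences on an Agilent 4 × 180k array, alongside negative controls, exposed for 1 h to GST-tagged P. falciparum DNA-binding domains expressed in E. coli. Bound protein was picked up with Alexa488 anti-GST antibody and scanned at 488 nm.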
row,Sequence,gcPBM binding intensity (ln)
1,TCTATTCATTTTGAAGGTACACATTTCTTTATAATA [XGTACX_site6218],9.57
2,GTATTAGATAAATACACACACAAGCATATATTTTTA [CACACA_site3431],10.3
3,AATATATCATTATATAAACACACAATATGTTTTTTA [CACACA_site9260],9.64
4,AAAAATATATATATATATATATATATAAGGAATATA [XGTACX_negctrl_site450],9.91
5,AATAAATATATAAATACACACAAACATACATATATA [CACACA_site9340],10.2
6,TTAAATTTTTTTTTGTGTACGAAAAACAGAAAAAAT [XGTACX_site8625],9.22
7,TATGTGTATGGGAATGCATGTAAATATGTACATATA [TGCATGCA_site737],9.96
8,ATATATATATACATATGTACATATAAAATAATTTTG [XGTACX_site3731],9.7
9,TTGTTCCACAAAAATTTAGTCAAAAAAAAATAAAAA [TGCATGCA_negctrl_site546],9.37
10,ACAAAAAAAAAAATAACACACATGGGGGTGTATAAA [CACACA_site3797],9.87
11,AATGAATAACAATACTATATGATTTTTAATACATTA [XGTACX_negctrl_site42],9.56
12,GTATATTATTTACGTTTGCACTTCATTTTATAGTAA,9.84
13,TATTAATTGTGGCACCTTGTATGTTTACAATGACAT [CACACA_negctrl_site1383],9.81
14,AATGGATGAATGAATGTATGAATGAATGTATGAATG [CACACA_negctrl_site91],9.6
15,TTCTTCAAAAAAAATTGTACACATCTCTCAAATGTT [XGTACX_site2952],9.6
16,TGTATGTATTAATGCGCACACAAAAAATAACAATAT [CACACA_site1848],10.5
17,AAAAAAAAAAAAAAGAGTACACAGACGTTCAAAGGT [XGTACX_site7566],10.1
18,ACAGAGCTTTAAATACGTACATAATATATATTAAAT [XGTACX_site8221],9.58
19,ATATAGATATATAGTAGTACTTGTTATATAAGATAA [XGTACX_site6336],9.77
20,TATTGATTTAGAAACACACACTCGAAGATGTTTAAC [CACACA_site1129],9.83
21,ATATATATATATAAATGTACATTGTGTGTTGTAAGA [XGTACX_site2434],9.93
22,ATAAAAAAAAAATAATGTACTTATATATATATATAT [XGTACX_site8282],9.55

row,Sequence,gcPBM binding intensity (ln)
1,TTAAAAATGTTGGAAAGTACATATTTTTTAAAAGTA [XGTACX_site802],9.39
2,CGCCTATAAGCTTAGACACACAAATAAATAAATATA [CACACA_site1264],9.48
3,TACCTAATTCGGTCCCGTACAAGTTAGTTTCAATTC [XGTACX_site2703],9.44
4,TATTGGGGGTATAAACACAGTAAGTAAATAAATAAA [CACACA_negctrl_site1680],9.45
5,ATGTATGTGTAACATAGTACTTTTTAAAAGGATATT [XGTACX_site5328],9.8
6,TATAGATACATATACACACACACACCCACATATATA [CACACA_site3436],10.8
7,AATATCATATAAAAATGTACAAATTCTAAAACACGA [XGTACX_site1442],9.77
8,TATTTTTTATAATAATGTACATATATATATATAATA [XGTACX_site2329],9.45
9,GTATTCATGCTAAAGGTGCAATAATTTTTATAATAA [GTGCAC_site9603],9.46
10,AAGATAAAATTATGTAGTACAAAAAAAAATAAAAAA [XGTACX_site139],9.88
11,ATCAAACCTTTTAAATGTACATTCGGAGTAAAAAAA [XGTACX_site282],9.56
12,AAAAGTTTTATTTAAATGAATTAATCTTTACTATAT [CACACA_negctrl_site282],9.52
13,TGATTTCCAGGTTATTGTACAAAATTAATTTTCGAA [XGTACX_site2491],9.47
14,TATTAAACAAATTATGCAAAAATAAATCAATATGTT [CACACA_negctrl_site171],9.61
15,CAATTTATAAAGAAAACACACATATACATATATACA [CACACA_site1260],9.8
16,ATTATTTTATAATTCACACATAAATAAAAAAAAAAT [CACACA_site5290],9.55
17,TTAGGAAGCTCACAAAATAAAGTGAAAAGAAGAAAA [XGTACX_negctrl_site572],9.55
18,TAAATATTATTTCATAGTACTTTTATTATTGATATA [XGTACX_site5566],9.59
19,TTTTGTAGTTTATAAATAAAAGAGAATATGGTGCTT [CACACA_negctrl_site413],9.63
20,TAAATAAATATATATACACACATATATATATATATA [CACACA_site598],9.6
21,ATATATATAAAACACACACACAAAAAAAATAAAGAC [CACACA_site117],11.2

# Source: the supplement of paper PMC11417369
